Values joined by “and” are separate entries in the source; they are usually repeats but may differ in a detail not shown here. Equal entries are not always repeated. Screen size: about 48,000 compounds; about 1,200 (2.5%) were called active. Not shown: some 2% with an inconclusive outcome.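 The calls were made as follows: active = activation of at least 60% and not above a set upper limit (about 1 call in 100 departs from these limits); inconclusive = activation of 40% to 60%, or above that upper limit; inactive = activation under 40%.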 The list shows a part of the results.
Target: Probable G-protein coupled receptor 32 (Homo sapiens) (UniProt O75388)
Test: qHTS for Agonists of Human Resolvin D1 Receptor DRV1; also: 0% is about no effect
Conditions: CHO-K1 GPR32 beta-arrestin PathHunter luminescence, 90 min; at 76.9 µM; stronger effect = higher value; zero percent set by DMSO-only wells
Outline: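 Beta-arrestin recruitment read-out: luminescence from complemented beta-Gal in CHO-K1 GPR32 PathHunter cells, measured 1 h after detection reagent at ambient temperature following 90 min compound exposure at 37 °C; DMSO served as basal (EC0) control.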

Chain of UniProt O75388 (O75388 whole entry, looked up): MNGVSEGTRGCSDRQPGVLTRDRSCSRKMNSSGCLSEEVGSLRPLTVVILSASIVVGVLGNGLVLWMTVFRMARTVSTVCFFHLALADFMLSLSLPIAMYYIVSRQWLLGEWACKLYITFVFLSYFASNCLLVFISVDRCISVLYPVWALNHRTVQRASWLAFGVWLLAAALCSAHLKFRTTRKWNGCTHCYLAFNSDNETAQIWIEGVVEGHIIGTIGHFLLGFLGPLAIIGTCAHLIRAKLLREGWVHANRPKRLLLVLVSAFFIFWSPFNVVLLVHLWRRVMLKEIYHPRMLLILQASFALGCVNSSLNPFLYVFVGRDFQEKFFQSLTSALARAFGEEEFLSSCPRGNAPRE

activation, inactive:
CC[N+](CC)(CC)CCOc1cccc(OCC[N+](CC)(CC)CC)c1OCC[N+](CC)(CC)CC 24% and -7.03%, COc1ccccc1N1CCN(c2ncc3c(n2)CCN(Cc2ccc(C)s2)C3)CC1 -13.2%, COc1ccc(Cl)cc1NC(=O)CSc1nc(-c2cccs2)cc(C(F)(F)F)n1 -3.79%, CCN(CC)C(=O)Cn1cc(SCC(=O)Nc2cc(OC)ccc2OC)c2ccccc21 -13.5%, Cc1ccc(Cl)cc1N1CCN(C(=O)c2sc3nc4n(c(=O)c3c2C)CCC4)CC1 -6.01%, CN(C)CCNC(=O)c1ccc2nc(Cc3ccccc3)oc2c1 -18.2%, COc1ccc(Cl)cc1NC(=O)CSc1cc(C)[nH]c(=O)n1 -9.88%, Cc1cccn2c(=O)cc(CSc3nnc(NC(=O)C(C)C)s3)nc12 -5.83%, Cc1ccccc1C(=O)Nc1sc2c(c1C(=O)N1CCCCC1)CCC(C(C)(C)C)C2 (stereo not given) -20.8%, CCC(CC)C(=O)Nc1ccc2nc(SCC(=O)N3CCOCC3)sc2c1 -8.09%, COc1ccc(C(=O)NCC(c2ccc(N(C)C)cc2)N2CCOCC2)cc1 (stereo not given) 14.3%, Cc1ccc(CSc2nc3ccc(NC(=O)CC(C)C)cc3s2)cc1 33.4%, CCC(C)n1c(SCc2ccc(F)cc2Cl)nc2ccsc2c1=O (stereo not given) -15.7%, CCOC(=O)c1noc2ncn(Cc3ccc([N+](=O)[O-])cc3)c(=O)c12 -11.6%, CSc1ccc(CCNC(=O)c2c(C)nn(-c3ccc(F)cc3)c2-n2cccc2)cc1 -7.31%, Cc1cc(=O)n2nc(N3CCC(C(=O)NCCCOC(C)C)CC3)sc2n1 9.71%, Cc1cc(NC(=O)c2oc3c(c2C)-c2[nH]ncc2CC3)ccc1Br -4.53%, Cc1nn(-c2ccc(F)cc2)c(-n2cccc2)c1C(=O)N1CCCCC1C (stereo not given) 20.8%, O=C(CC1NCCNC1=O)Nc1ccc(F)c(Cl)c1 (stereo not given) -7.93%, NS(=O)(=O)c1cc2c(cc1Cl)NC(CC1CCCC1)NS2(=O)=O (stereo not given) -9.01%, O=C(CSc1nnc(CNC(=O)c2ccccc2)n1-c1ccc(F)cc1)Nc1ccccc1F -7.75%, COc1ccc(Nc2ncc(C(=O)Nc3ccc(F)cc3F)c3ccccc23)cc1 -8.29%, CCCCOc1ccc(C(=O)Nc2sc3c(c2C(=O)OCC)CCCCC3)cc1 -22.2%, COc1ccccc1N1CCN(S(=O)(=O)c2ccc3c(c2)CCCN3C(C)=O)CC1 -16.9%, CCOCCCn1c(SCC(=O)Nc2ccc(F)cc2)nc2c(sc3ccccc32)c1=O 26.9%, CCC(C(=O)Nc1cc(-c2cn3cccnc3n2)ccc1C)c1ccccc1 (stereo not given) -19.9%, CCc1cccc(NC(=O)Cn2c(-c3ccc(F)cc3)cc(C(C)=O)c2C)c1 -6.16%, O=C(c1ccc2c(c1)N(Cc1ccccc1Cl)C(=O)c1ccccc1S2)N1CCCC1 -30.5%, CCCCNS(=O)(=O)c1ccc(NC(=O)c2c(-c3ccccc3)noc2C)cc1 2.28%, CC(C)(C)NCC(O)c1cc(O)cc(O)c1 (stereo not given) 14.3% and 3%, CCc1ccccc1-n1c(SCC(=O)Nc2ccc(C)cc2)nc2n[nH]c(C)c2c1=N -7.23%, Nc1nc2nc(-c3ccccc3)cc(=O)n2[nH]1 -0.555%, Cc1ccccc1CNC(=O)CN1CCSc2ccccc21 6.04%, Cc1cccc(NS(=O)(=O)c2ccc3c(c2)n(C)c(=O)n3C)c1C 7.27%, Fc1ccc(CNc2nc(-c3ccc(Cl)cc3)cc(C(F)(F)F)n2)cc1 -0.0466%, Cc1ccc(NC(=O)C2CCN(S(=O)(=O)c3ccc4c(c3)CCCC(=O)N4)CC2)c(Br)c1 -3.52%, COc1ccc(NC(=O)CN2CCCN(Cc3ccccc3)S2(=O)=O)cc1 -5.2%, O=C(CSc1nc2ccccc2nc1Cc1ccc(Cl)cc1)N1CCCCC1 -7.27%, CCCCOC(=O)c1ccc(NC(=O)c2ccc3c(c2)CCCN3S(C)(=O)=O)cc1 -9.73%, O=C(Cn1c(=O)n(-c2ccccc2)c(=O)c2c3c(sc21)CCC3)c1ccc(Br)cc1 -10.6%, CCOC(=O)c1c(C)oc2ccc(N(C(=O)c3ccncc3)S(=O)(=O)c3ccc(F)cc3C)cc12 -12.7%, Cc1ccc2nc(-c3ccc(Cl)c(NC(=O)COc4ccc([N+](=O)[O-])cc4)c3)oc2c1 -4.79%, COc1cccc(NC(=O)c2cnc(SCC(=O)N3CCCc4ccccc43)n(C)c2=O)c1 -13.5%, COc1ccccc1N1CCN(S(=O)(=O)c2cc(C(=O)Nc3ccc(Oc4ccccc4)cc3)ccc2F)CC1 -3.4%, Cc1cccc(CS(=O)(=O)Cc2ccc(C(=O)NCc3ccc(F)cc3)o2)c1 -7.21%, CC(C)CCNC(=O)CCCn1c(=O)c2cccn2c2ccccc21 -13.6%, CCN(C(=O)c1cc2c(=O)oc3ccccc3c2s1)c1ccccc1F 13.2%, Cc1noc(-c2ccc(-c3noc(-c4ccc(Cl)cc4)n3)cc2)n1 9.87%, Cc1cc(C)cc(NC(=O)CN2C(=O)c3ccccc3Sc3ccc(C(=O)N4CCCC4)cc32)c1 -17.6%, Cc1ccc(C)c(CN2CCCN(Cc3ccccc3C)S2(=O)=O)c1 -26.4%, COc1ccccc1NC(=O)CSc1nnc2c(n1)[nH]c1ccccc12 3.53%, O=C(CN1C(=O)CCc2cc(Br)ccc21)Nc1ccc(OC(F)(F)F)cc1 -7.78%, CCOC(=O)c1ccc(Nc2c(-c3ccc(N(C)C)cc3)nc3nc[nH]n23)cc1 -27%, COc1ccc(NC(=O)c2cnc3cc(C)ccn3c2=O)c(OC)c1 4.1%, COc1cccc(CNC(=O)c2nn(C)c3c2CSc2ccccc2-3)c1 -14.4%
